Data published in the supplement of paper PMC9151546.
Single values are uncertain, as repeats are few or missing.

Tests used:
CHO-K1 [1] = experiment: micronucleus frequency (% of nucleated events); higher = more micronuclei (genotoxic)
CHO-K1 [2] = experiment: hypodiploid nuclei frequency (% of nucleated events); higher = more hypodiploid events (aneugenic)
Description: (§1)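 Flow-cytometric in vitro micronucleus assay (Litron MicroFlow) in CHO-K1 cells in 96-well plates, 19 concentrations (4.5-200 µM, n=1 per concentration). Without S9, cells were exposed for 24 h and sampled at 48 h. With Aroclor 1254-induced rat liver S9, cells were exposed for 3-4 h and sampled at 27-28 h. Read-outs are %MN and %hypodiploid nuclei relative to nucleated events, and relative survival as the nuclei-to-bead ratio versus the 1% DMSO vehicle control (x100).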

CHO-K1 [3] = experiment: relative survival (nuclei to bead ratio vs DMSO control) (% of vehicle control); higher = more surviving cells
Description: as §1
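For hypodiploid nuclei frequency (% of nucleated events) in this document: hypodiploid nuclei gated on a flow cytometer with 488 nm excitation after SYTOX Green staining, cultures at 37 °C, positive controls vinblastine without S9 and cyclophosphamide with S9.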
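For micronucleus frequency (% of nucleated events) in this document: cells lysed with nuclei stained by SYTOX Green, then micronucleus-gated events counted against nucleated events by flow cytometry with 488 nm excitation.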
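For relative survival (nuclei to bead ratio vs DMSO control) in this document: Lysed-cell nuclei stained with SYTOX Green and counted against counting beads by flow cytometry at 488 nm excitation, with vinblastine (no S9) and cyclophosphamide (plus S9) as positive controls.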

Cc1ccc(N)cc1O [5-Amino-2-methylphenol]
Settings	hypodiploid nuclei frequency, CHO-K1 [2] [%]	micronucleus frequency, CHO-K1 [1] [%]	relative survival, CHO-K1 [3]
concentration: 4.55 (µM), S9 metabolic activation: with S9, exposure time: 3-4 hours	0.32	2.14	106
concentration: 4.55 (µM), S9 metabolic activation: without S9, exposure time: 24 hours	0.76	1.5	89.1
concentration: 5.69 (µM), S9 metabolic activation: with S9, exposure time: 3-4 hours	0.26	2.04	140
concentration: 5.69 (µM), S9 metabolic activation: without S9, exposure time: 24 hours	1.3	1.9	101
concentration: 7.11 (µM), S9 metabolic activation: with S9, exposure time: 3-4 hours	0.28	2.32	122
concentration: 7.11 (µM), S9 metabolic activation: without S9, exposure time: 24 hours	1.16	1.28	92.4
concentration: 8.88 (µM), S9 metabolic activation: with S9, exposure time: 3-4 hours	0.26	2.6	107
concentration: 8.88 (µM), S9 metabolic activation: without S9, exposure time: 24 hours	1.52	1.04	99.2
concentration: 11.1 (µM), S9 metabolic activation: with S9, exposure time: 3-4 hours	0.36	2.82	123
concentration: 11.1 (µM), S9 metabolic activation: without S9, exposure time: 24 hours	0.98	1.04	116
concentration: 13.9 (µM), S9 metabolic activation: with S9, exposure time: 3-4 hours	0.46	2.34	112
concentration: 13.9 (µM), S9 metabolic activation: without S9, exposure time: 24 hours	0.82	0.74	108
concentration: 17.4 (µM), S9 metabolic activation: with S9, exposure time: 3-4 hours	0.22	2.28	125
concentration: 17.4 (µM), S9 metabolic activation: without S9, exposure time: 24 hours	1.06	1.06	106
concentration: 21.7 (µM), S9 metabolic activation: with S9, exposure time: 3-4 hours	0.26	3.12	138
concentration: 21.7 (µM), S9 metabolic activation: without S9, exposure time: 24 hours	0.82	1.3	97.5
concentration: 27.1 (µM), S9 metabolic activation: with S9, exposure time: 3-4 hours	0.3	1.44	127
concentration: 27.1 (µM), S9 metabolic activation: without S9, exposure time: 24 hours	2.38	1.96	90.9
concentration: 33.9 (µM), S9 metabolic activation: with S9, exposure time: 3-4 hours	0.42	1.7	162
concentration: 33.9 (µM), S9 metabolic activation: without S9, exposure time: 24 hours	1.94	1.1	53.7
concentration: 42.4 (µM), S9 metabolic activation: with S9, exposure time: 3-4 hours	0.2	1.5	149
concentration: 42.4 (µM), S9 metabolic activation: without S9, exposure time: 24 hours	1.76	1.7	76.6
concentration: 53 (µM), S9 metabolic activation: with S9, exposure time: 3-4 hours	0.44	1.56	132
concentration: 53 (µM), S9 metabolic activation: without S9, exposure time: 24 hours	2.52	1.34	73
concentration: 66.2 (µM), S9 metabolic activation: with S9, exposure time: 3-4 hours	0.38	2.38	132
concentration: 66.2 (µM), S9 metabolic activation: without S9, exposure time: 24 hours	1.24	1.34	90
concentration: 82.7 (µM), S9 metabolic activation: with S9, exposure time: 3-4 hours	0.32	1.7	125
concentration: 82.7 (µM), S9 metabolic activation: without S9, exposure time: 24 hours	3.12	1.6	55.1
concentration: 103 (µM), S9 metabolic activation: with S9, exposure time: 3-4 hours	0.18	1.86	111
concentration: 103 (µM), S9 metabolic activation: without S9, exposure time: 24 hours	1.88	1.7	51.5
concentration: 129 (µM), S9 metabolic activation: with S9, exposure time: 3-4 hours	0.2	1.8	95.8
concentration: 129 (µM), S9 metabolic activation: without S9, exposure time: 24 hours	–	–	34.4
concentration: 162 (µM), S9 metabolic activation: with S9, exposure time: 3-4 hours	0.3	1.82	121
concentration: 162 (µM), S9 metabolic activation: without S9, exposure time: 24 hours	3.25	1.81	41.2
concentration: 202 (µM), S9 metabolic activation: with S9, exposure time: 3-4 hours	0.18	2.04	113
concentration: 202 (µM), S9 metabolic activation: without S9, exposure time: 24 hours	–	–	39
